Reference: paper PMC4336329 (PLoS ONE, 2015)
The campaign covered roughly 310,000 compounds. About 2,200 (0.71%) showed an effect of 50% or more. Effects have a minus sign here. This is one part of the list.

biological target: human ether-à-go-go-related gene (hERG) potassium channel (human, UniProt Q12809); assay: primary screen, population patch clamp on CHO cells stably expressing hERG
Sequence (Q12809 whole entry, looked up): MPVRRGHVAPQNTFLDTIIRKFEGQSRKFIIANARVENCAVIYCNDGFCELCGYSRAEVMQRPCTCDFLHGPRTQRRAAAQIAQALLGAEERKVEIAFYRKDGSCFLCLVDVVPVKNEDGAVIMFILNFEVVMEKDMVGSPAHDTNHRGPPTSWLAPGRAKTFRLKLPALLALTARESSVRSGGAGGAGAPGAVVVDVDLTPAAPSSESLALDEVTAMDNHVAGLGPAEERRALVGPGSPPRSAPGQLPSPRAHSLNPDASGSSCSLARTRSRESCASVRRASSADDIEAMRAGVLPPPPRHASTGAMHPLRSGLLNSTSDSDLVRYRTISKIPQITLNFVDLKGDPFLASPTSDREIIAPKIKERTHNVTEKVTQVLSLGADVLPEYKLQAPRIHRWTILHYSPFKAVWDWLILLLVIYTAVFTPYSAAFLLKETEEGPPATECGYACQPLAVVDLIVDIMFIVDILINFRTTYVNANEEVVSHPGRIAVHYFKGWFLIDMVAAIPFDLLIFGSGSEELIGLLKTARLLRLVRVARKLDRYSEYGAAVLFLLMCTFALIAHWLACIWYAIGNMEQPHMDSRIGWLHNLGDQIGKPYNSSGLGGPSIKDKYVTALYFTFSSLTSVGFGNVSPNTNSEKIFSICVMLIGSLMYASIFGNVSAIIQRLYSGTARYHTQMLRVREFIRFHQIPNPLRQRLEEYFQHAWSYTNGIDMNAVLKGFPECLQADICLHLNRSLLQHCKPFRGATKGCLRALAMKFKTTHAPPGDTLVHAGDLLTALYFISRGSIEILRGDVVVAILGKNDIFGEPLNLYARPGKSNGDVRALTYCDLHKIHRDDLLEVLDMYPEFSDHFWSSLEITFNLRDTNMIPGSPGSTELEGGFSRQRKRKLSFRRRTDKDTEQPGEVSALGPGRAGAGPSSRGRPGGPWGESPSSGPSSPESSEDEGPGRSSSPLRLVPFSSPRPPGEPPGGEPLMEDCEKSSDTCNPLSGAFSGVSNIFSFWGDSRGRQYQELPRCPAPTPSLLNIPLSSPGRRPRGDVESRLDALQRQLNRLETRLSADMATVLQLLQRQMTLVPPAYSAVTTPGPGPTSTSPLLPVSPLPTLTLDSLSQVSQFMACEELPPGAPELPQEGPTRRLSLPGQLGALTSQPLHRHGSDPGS

SMILES | hERG current change (%, negative = inhibition) at 1uM [%]
CCOC(=O)C1CCCN(Cc2nc(N)nc(Nc3ccccc3OC)n2)C1 (stereo not shown) | -53.2
COc1cccc(CN2CCCC(C(=O)N3CCCCC3)C2)c1OC.O=C(O)C(=O)O (stereo not shown) | -8.26
Cc1noc(C)c1C(=O)NCCCN1CCCC1=O | 9.97
O=C(CCSCc1cccc(Cl)c1)NCCc1ccc(Cl)cc1 | 15.9
CC(NC(=O)NC(=O)c1cccc([N+](=O)[O-])c1)C1CC1 (stereo not shown) | -1.6
COc1cc(C(c2c(C)[nH][nH]c2=O)c2c(C)[nH][nH]c2=O)cc(Br)c1OC | 11.3
Br.N=c1c2c(n(Cc3ccc(Br)cc3)c3c1CCC3)CCCC2 | -6.82
O=C(/C=C/c1ccco1)Nc1ccc(Oc2ccccc2)cc1 | -6.59
O=C(Nc1cc(Cl)ccc1N1CCOCC1)c1ccco1 | 3.21
CCCn1c2ccc(F)cc2c2nnc(NN)nc21 | 10.9
Cc1[nH]n(-c2ccccc2)c(=O)c1-c1cccc(Cl)c1 | 23.3
O=C1CN(c2nnnn2-c2ccccc2)CCN1 | 6.77
O=C1CC(Nc2ccccc2)C(=O)N1Cc1ccccc1 (stereo not shown) | 4.67
COc1ccc([N+](=O)[O-])cc1NC(=O)C(C)N1CCN(C(=O)c2ccco2)CC1 (stereo not shown) | 8.81
Cc1cccc(N2CCN(c3ccc(NC(=O)/C=C(/C(=O)O)c4ccccc4)cc3)CC2)c1 | 11.6
O=C(OCc1ccccc1Cl)c1ccc(-n2cnnc2)cc1 | 7.37
Cn1nc(C(C)(C)C)c([N+](=O)[O-])c1C(=O)NCCO | 12.6
CCCn1cc([C@@H]2C[C@H]3CN(Cc4cccc(Cl)c4)C(=O)[C@]34CCCN24)c(C)n1 | -42.3
CCCCN(C)C(=O)C1CCN(C/C(C)=C/c2ccccc2)CC1.O=C(O)C(=O)O | -54.3
O=C(c1ccco1)N1CCN(Cc2cc(=O)c(OCc3ccccc3)co2)CC1 | 8.42

SMILES | hERG current change (%, negative = inhibition) at 1uM [%]
O=C(O)C1CCC(CNS(=O)(=O)c2ccc(Cl)cc2)CC1 (stereo not shown) | 22.3
CSc1nnc(C)c(=O)n1COC(=O)COc1ccc(Cl)cc1 | 15
O=C1OC(c2ccc(F)cc2)=C/C1=C\c1ccc(O)cc1 | 13.6
CSc1ncccc1C(=O)N1CCN(S(=O)(=O)c2ccc(F)cc2)CC1 | 10.2
Cc1ccc(Cl)cc1N1C(=O)CC(C)(C)CC1=O | 14.6
CC(C)c1nnc(NC(=O)CCN2C(=O)c3ccccc3C2=O)s1 | 13.7
C1=CC2CC1CC2CN1CCN(Cc2ccccc2)CC1.O=C(O)C(=O)O (stereo not shown) | 10.4
COc1ccc(OC)c(C2=NOC(C(=O)NCc3ccccn3)C2)c1 (stereo not shown) | 6.59
O=C(Cn1cc2c(n1)CCCC2)NC1CCN(Cc2ccccc2)CC1 | 3.9
Cc1nc(/C(=N/O)C(N)=O)cs1 | 12.7
CCCCOc1ccccc1Cn1c(=O)oc2ccc(C)cc21 | 6.97
COc1ccc(Br)cc1CNCCSc1nnnn1C.Cl | -2.34
CCOC(=O)CNC(c1ccccc1)c1cc(Br)ccc1NC(C)=O (stereo not shown) | -1.51
COc1ccc(CN2C(=O)C(O)(CC(=O)c3ccc4c(c3)OCO4)c3ccccc32)cc1OC (stereo not shown) | -6.51
CCCN1CNc2c(c(=O)[nH]c(=S)n2-c2ccc(Cl)cc2)C1 | 1.74
Cc1cccc(-n2nnnc2SCC(=O)NCCN2C(=O)CSC2=O)c1 | -5.57
O=C(NCC(=O)N1CCN(S(=O)(=O)c2cccs2)CC1)c1ccc(Cl)cc1 | -11.6
O=CN(c1ccccc1)c1ccc2ccccc2c1 | 6.97
CC(=O)c1cc(NC(=O)c2ccccc2)c(=O)oc1/C=C/N(C)C | -4.92
COc1ccc(C2=CSC3=NCCN23)cc1[N+](=O)[O-] | 2.48

SMILES | hERG current change (%, negative = inhibition) at 1uM [%]
O=C(CCN1CCc2ccccc2C1)Nc1cccc(F)c1 | -1.84
O=C(c1ccco1)N1CCN(C(c2ccc(F)cc2)c2nnnn2CC2CCCO2)CC1 (stereo not shown) | 0.849
Br.CC(=O)c1sc(N/N=C2\CC3CCC2(C)C3(C)C)nc1C (stereo not shown) | 5.55
COc1cc(/C=C2\SC(=N)N(c3ccc(F)cc3)C2=O)ccc1O | 11.3
Cc1ccc(C(=O)NC(=O)CSc2ncccc2C(=O)O)cc1 | 3.17
COc1ccccc1NS(=O)(=O)c1cccc(C(=O)N/N=C(\C)c2ccc(-n3ccnc3)cc2)c1 | -9.87
O=C(Nc1nc2ccccc2s1)C1CC(=O)N(c2ccc(Br)cc2)C1 (stereo not shown) | 11.9
O=C(c1ccc(S(=O)(=O)c2cccc(Cl)c2)c([N+](=O)[O-])c1)N1CCN(Cc2ccccc2)CC1 | 15.8
Cc1cc(NC(=O)C2CCCCC2)ncc1NC(=O)c1ccccn1 | 13
Cc1ccc(S(=O)(=O)Nc2c(C)nc3nc(C)[nH]n3c2=O)c(C)c1 | 11.4
CCc1nnc(NC(=O)CSCc2cc(=O)n3nc(C)sc3n2)s1 | 16.7
Cc1nonc1C(=O)N1CCCC(Nc2ccc(C(C)C)cc2)C1 (stereo not shown) | 9.71
CC(=O)c1cccc(OCC(O)CNCCOc2ccc(C)cc2)c1 (stereo not shown) | 1.37
CCOC(=O)Cc1csc(NC(=O)CSc2nc(N)c3c(C)c(C)sc3n2)n1 | -5.18
O=C(CSc1nnc(-c2ccco2)n1Cc1ccccc1)c1ccc(F)cc1 | -24.1
O=C1CS/C(=N/N=C/c2cccs2)N1 | -6.76
CCN(CC)S(=O)(=O)c1cc(OC)c(C)cc1C | 10.9
CC(=O)Nc1ccc(NC(=O)C2c3ccccc3Oc3ccccc32)cc1 | 5.85
